# In the supplement of paper PMC4166925:
# ± gives the standard deviation of the averaged measurements. Whole data set: some 33,000 sequences, median “E-score (dimensionless, -0.5 to 0.5)” near -0.046, cut for the highest 2% near 0.36. Some of the results follow.
# Tested on: T1, SpTbr T-box DNA-binding domain (GST fusion)
# T1 sequence: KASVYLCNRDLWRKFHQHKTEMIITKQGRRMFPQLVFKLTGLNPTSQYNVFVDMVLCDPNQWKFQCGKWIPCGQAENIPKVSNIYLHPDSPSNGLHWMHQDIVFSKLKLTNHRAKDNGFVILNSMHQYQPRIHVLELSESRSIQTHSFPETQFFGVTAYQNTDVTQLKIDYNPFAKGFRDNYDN
# Assay: PBM E-score of 8-mer (E-score (dimensionless, -0.5 to 0.5)); Tbr is Tbrain of the sea star Patiria miniata (Pm) or the sea urchin Strongylocentrotus purpuratus (Sp); higher = stronger binding preference; most listed sequences are background and not binding sites
# Settings: the construct has about 5 more residues each side
# In short: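 Each ungapped 8-mer received an enrichment E-score from the Universal PBM Analysis Suite, averaged over duplicate arrays. The proteins were Tbr T-box DNA-binding domains, covering the whole T-box plus about five flanking residues, fused to GST and expressed in BL21 E. coli at 20 °C before glutathione affinity purification. Universal Agilent oligonucleotide arrays were made double-stranded by primer extension and incubated with 200 nM protein in PBS (pH 7.5). The arrays were then scanned and quantified, and every 8-mer was scored from probe intensities.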
row,Sequence,PBM E-score of 8-mer
1,CTCAGAAA,-0.244 ± 0.042
2,CTTACCCC,-0.0856 ± 0.04
3,ACTTGTTG,0.319 ± 0.0088
4,AGTACGCA,-0.0448 ± 0.049
5,AAGAGACG,-0.15 ± 0.032
6,AAGGAGTG,0.163 ± 0.07
7,ATGTACCG,-0.106 ± 0.003
8,ACCAATAT,0.115 ± 0.053
9,CAGACTAA,-0.19 ± 0.09
10,CGGCTCTA,-0.0822 ± 0.011
11,ACCTCGCA,0.24 ± 0.063
12,AACAGCAA,0.0761 ± 0.015
13,CGCCAAGC,0.115 ± 0.0023
14,ACACACGC,0.171 ± 0.04
15,AACCGTGA,0.277 ± 0.026
16,GAGACCTC,-0.305 ± 0.013
17,CACGGTGA,0.185 ± 0.04
18,CTCGGCGC,0.0434 ± 0.029
19,ACGCAATG,-0.0244 ± 0.029
20,CGGCCATA,-0.131 ± 0.035
21,CGCCATAG,-0.0513 ± 0.0075
22,ATAGCACC,0.387 ± 0.011
23,AGGTCTTA,-0.0667 ± 0.12
24,ATGTAAAG,-0.233 ± 0.0058
25,CAGCATAG,-0.0908 ± 0.019

row,Sequence,PBM E-score of 8-mer
1,CAGAGTCG,0.144 ± 0.077
2,CGTCGGCC,-0.0611 ± 0.048
3,ATGACAAG,0.199 ± 0.0097
4,GAGCCTTA,-0.298 ± 0.017
5,GACTTGGC,0.0377 ± 0.00048
6,GTACGTAC,0.000805 ± 0.068
7,GTCATTCA,0.103 ± 0.013
8,GCAAAACA,0.08 ± 0.034
9,AATACTAT,-0.141 ± 0.092
10,CGCGGGGA,0.0133 ± 0.076
11,ACCCGTAA,-0.0356 ± 0.034
12,CCCTCGAC,0.157 ± 0.038
13,AAGATATA,-0.0525 ± 0.16
14,CTGCAACA,-0.0244 ± 0.016
15,CCTGTGTA,-0.175 ± 0.024
16,ATCTATCA,-0.0518 ± 0.005
17,AGAGATAC,-0.178 ± 0.017
18,CAGGAGAG,-0.294 ± 0.031
19,AGGGTGTC,0.401 ± 0.015
20,AGAGCAAA,-0.172 ± 0.065
21,CCAAGAGG,0.12 ± 0.0026
22,CAAGACCA,-0.19 ± 0.1
23,ATAGAATA,-0.133 ± 0.17
24,AAGGAGGC,-0.201 ± 0.012
25,GTCTGCTA,-0.00306 ± 0.017

row,Sequence,PBM E-score of 8-mer
1,CCCCCTCG,-0.296 ± 0.043
2,CATGACGC,0.0651 ± 0.032
3,ACTTCTGC,0.0148 ± 0.00033
4,ATTATGGG,-0.193 ± 0.019
5,AACATTCG,-0.0917 ± 0.15
6,AATTACCG,0.0981 ± 0.071
7,GTTCAGAA,-0.168 ± 0.091
8,AACAAGAA,-0.111 ± 0.07
9,AGTGGATG,-0.186 ± 0.029
10,ACAGACCC,0.0259 ± 0.044
11,TACCTGAA,-0.191 ± 0.038
12,AAAGCCCG,-0.07 ± 0.094
13,AACTATCA,0.079 ± 0.08
14,CTGCGCGC,0.0702 ± 0.03
15,GTATTACA,-0.0124 ± 0.048
16,CGGTGCCA,0.119 ± 0.02
17,AAAGGTGG,0.0801 ± 0.026
18,ACGGCCTA,-0.213 ± 0.011
19,AGATGGCA,0.123 ± 0.024
20,ACCTGAGC,-0.0565 ± 0.027
21,ACGATTAA,-0.0334 ± 0.035
22,ACTCAGAT,-0.077 ± 0.02
23,TCCGCGCA,0.073 ± 0.057
24,AGCGGTCA,-0.129 ± 0.009
25,TCTATTCA,0.0968 ± 0.0075

row,Sequence,PBM E-score of 8-mer
1,GGCTGACA,0.212 ± 0.011
2,CATTCGGC,-0.0219 ± 0.054
3,ACGAGAGG,0.00413 ± 0.062
4,TACTTCTA,-0.155 ± 0.094
5,AATACAGA,0.0798 ± 0.046
6,CGTACATA,-0.0111 ± 0.06
7,ACCCGACT,0.0923 ± 0.057
8,GCGAATCC,0.196 ± 0.021
9,AAGCCGAG,-0.00787 ± 0.085
10,GTTTTGTA,-0.236 ± 0.0086
11,GACGCGAC,0.195 ± 0.045
12,CTCCCTTC,-0.214 ± 0.037
13,CTCTTGAC,0.231 ± 0.013
14,AACGGGTC,0.0199 ± 0.014
15,AGCAAGAT,-0.0318 ± 0.027
16,AAGAGGCC,-0.262 ± 0.044
17,AGCGCCCT,0.0617 ± 0.059
18,GTTCGTGA,0.145 ± 0.024
19,CAAAGTGG,0.0165 ± 0.058
20,AGTACGTA,-0.0947 ± 0.098
21,GGTAGACC,-0.219 ± 0.0032
22,GTGACCGA,0.26 ± 0.033
23,GACCGACC,-0.088 ± 0.079
24,ACGAAGCG,0.0517 ± 0.0086
25,CAGGTCCA,-0.16 ± 0.04

row,Sequence,PBM E-score of 8-mer
1,CTTGCGCC,0.0724 ± 0.083
2,CACCACTG,0.209 ± 0.0027
3,ATCGACGA,0.0639 ± 0.044
4,CCGACTAC,-0.168 ± 0.023
5,CTAGTGAA,0.0786 ± 0.021
6,CCAGGGAC,-0.058 ± 0.12
7,ATGTCTTC,0.0345 ± 0.019
8,ACCCAAAC,-0.0851 ± 0.12
9,ATCCCCAC,0.242 ± 0.0036
10,ATTCTTTG,-0.143 ± 0.047
11,ATTAAGGA,-0.171 ± 0.037
12,AGCTGCGA,0.307 ± 0.025
13,GCCATTCA,0.125 ± 0.0034
14,GCTGATGA,0.0865 ± 0.027
15,GACCGGAC,0.0405 ± 0.05
16,CTCTAATC,-0.274 ± 0.018
17,CACGAGTC,0.0832 ± 0.035
18,ACCTTCGC,0.234 ± 0.025
19,CAGCGGAG,-0.0528 ± 0.0068
20,CAACAGCA,0.168 ± 0.074
21,CAAACGAG,-0.0117 ± 0.021
22,ATATTGAA,-0.226 ± 0.0043
23,AATCATAG,-0.191 ± 0.1
24,TAACTCTA,-0.134 ± 0.071
25,GCGCTAGA,0.132 ± 0.077

row,Sequence,PBM E-score of 8-mer
1,CAGAACAC,-0.0045 ± 0.11
2,TGGCTTAA,-0.345 ± 0.0089
3,AAGGTTCA,0.127 ± 0.071
4,TCGCTAGA,0.126 ± 0.0074
5,AAGAGTAT,-0.163 ± 0.024
6,AGCACAGC,-0.145 ± 0.0064
7,AGGCCGAC,-0.147 ± 0.035
8,TTGGCCAA,-0.138 ± 0.061
9,CAAATCCC,-0.0307 ± 0.076
10,CTGTCCGA,-0.268 ± 0.036
11,CACAAGAC,0.0103 ± 0.0076
12,AACAGGCT,-0.182 ± 0.046
13,CATATCCA,-0.0171 ± 0.0059
14,ATGGATCA,-0.196 ± 0.019
15,AAGCCTGG,-0.118 ± 0.066
16,CCTGTGGC,-0.0683 ± 0.12
17,AGTTTTAA,-0.0527 ± 0.037
18,AGGCTACG,-0.2015 ± 0.00054
19,ACCGAACG,0.0604 ± 0.033
20,GCGCGAAA,0.4374 ± 0.0039
21,GTAAAAAC,-0.0472 ± 0.11
22,GCTCCCTA,-0.25 ± 0.014
23,CCTAAACG,-0.00814 ± 0.011
24,GCTCGGAA,-0.2 ± 0.067
25,AGCTGTGG,0.129 ± 0.058

row,Sequence,PBM E-score of 8-mer
1,GACTTCGC,0.079 ± 0.035
2,CTGTTTGA,-0.0938 ± 0.067
3,CGCTGTTC,-0.0423 ± 0.042
4,AATGTAGG,-0.25 ± 0.0091
5,CCCTAGAC,-0.248 ± 0.023
6,AGTCCCTG,-0.146 ± 0.046
7,CTAATCCA,-0.0207 ± 0.017
8,GAACTATC,-0.0302 ± 0.011
9,CAGAACCG,-0.0963 ± 0.026
10,TAGCCCAA,-0.193 ± 0.06
11,CAACAAAC,0.041 ± 0.046
12,GTGCACAC,0.276 ± 0.044
13,ACACTCTG,0.272 ± 0.019
14,CCGCCACC,0.288 ± 0.056
15,ACTCTGCG,0.104 ± 0.012
16,ATAGCGCG,0.207 ± 0.017
17,GCTTCTCC,-0.194 ± 0.039
18,CTGGTACC,-0.0548 ± 0.03
19,TTCGCCAA,0.124 ± 0.054
20,ACAGTGAC,0.163 ± 0.018
21,CATCGGCG,0.00151 ± 0.036
22,CGTCAATA,0.11 ± 0.017
